Results from PMC4336329 (PLoS ONE, 2015).
Hit rate of the full screen: of about 310,000 compounds, about 2,200 (0.71%) showed an effect of 50% or more. Effects have a minus sign here. The list shows a part of the results.

What follows are molecules tested against human ether-à-go-go-related gene (hERG) potassium channel (human, UniProt Q12809) (assay: primary screen, population patch clamp on CHO cells stably expressing hERG).
human ether-à-go-go-related gene (hERG) potassium channel, sequence (Q12809 whole entry, looked up): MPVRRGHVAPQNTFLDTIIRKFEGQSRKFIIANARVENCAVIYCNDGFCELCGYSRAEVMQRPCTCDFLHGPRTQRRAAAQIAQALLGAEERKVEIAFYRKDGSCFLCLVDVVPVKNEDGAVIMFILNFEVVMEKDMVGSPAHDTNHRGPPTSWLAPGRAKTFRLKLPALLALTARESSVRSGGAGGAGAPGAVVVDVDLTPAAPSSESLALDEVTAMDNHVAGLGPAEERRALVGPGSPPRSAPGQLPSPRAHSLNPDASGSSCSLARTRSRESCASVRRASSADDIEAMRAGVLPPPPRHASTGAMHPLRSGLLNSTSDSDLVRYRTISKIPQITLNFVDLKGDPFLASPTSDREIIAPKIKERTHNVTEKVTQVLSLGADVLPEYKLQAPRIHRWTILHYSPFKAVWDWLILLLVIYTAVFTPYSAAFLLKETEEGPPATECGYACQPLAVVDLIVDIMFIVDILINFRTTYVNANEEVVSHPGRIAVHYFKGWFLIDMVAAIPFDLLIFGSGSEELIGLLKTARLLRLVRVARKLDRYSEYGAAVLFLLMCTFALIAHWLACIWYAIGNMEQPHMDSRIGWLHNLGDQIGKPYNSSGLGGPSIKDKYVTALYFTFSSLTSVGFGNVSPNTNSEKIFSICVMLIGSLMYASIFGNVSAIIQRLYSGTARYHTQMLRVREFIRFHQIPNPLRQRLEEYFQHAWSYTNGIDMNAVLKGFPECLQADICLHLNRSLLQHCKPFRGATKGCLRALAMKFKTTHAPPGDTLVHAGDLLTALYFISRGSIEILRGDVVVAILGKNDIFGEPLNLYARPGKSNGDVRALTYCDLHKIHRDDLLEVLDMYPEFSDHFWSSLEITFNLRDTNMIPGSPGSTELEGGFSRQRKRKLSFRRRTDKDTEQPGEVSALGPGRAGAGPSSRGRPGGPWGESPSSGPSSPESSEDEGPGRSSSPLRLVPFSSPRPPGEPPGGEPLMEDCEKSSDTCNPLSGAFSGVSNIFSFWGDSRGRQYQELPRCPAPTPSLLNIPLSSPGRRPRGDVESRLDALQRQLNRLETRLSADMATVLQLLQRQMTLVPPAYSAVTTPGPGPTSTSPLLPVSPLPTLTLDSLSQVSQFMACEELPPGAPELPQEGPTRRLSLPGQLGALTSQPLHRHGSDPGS

| SMILES | hERG current change (%, negative = inhibition) at 1uM |
| --- | --- |
| CC(=O)/C(=N/Nc1ccc(Br)cc1)N1CCCc2ccccc21 | 9.37% |
| CC(C(=O)Nc1ccccc1Cl)c1ccc([N+](=O)[O-])cc1 (stereo not shown) | 0.442% |
| S=C(Nc1ccccn1)Nc1ccccc1Cl | 14.1% |
| COc1ccc(Cn2nnnc2CN(Cc2cc3ccc(C)cc3[nH]c2=O)C2CCCC2)cc1 | -3.39% |
| COc1ccc(CN(CC(=O)NCC2CCCO2)C(=O)CCC(=O)Nc2cc(C)on2)cc1 (stereo not shown) | 2.92% |
| COc1ccc(/C=C/C(=O)N(Cc2ccccc2)c2ccccn2)cc1OC | -22.2% |
| COc1ccccc1CNC(=O)CNC(=O)c1ccc(Br)o1 | 8.17% |
| COc1ccc(S(=O)(=O)Oc2ccc(C(=S)N3CCOCC3)cc2OC)cc1 | 10.3% |
| Cc1ccc(C)c(N2CCN(C(=O)C3CCCN(S(=O)(=O)c4cnc[nH]4)C3)CC2)c1 (stereo not shown) | 4.47% |
| COc1ccc(N2CCN(C(=O)C3CCN(C(=O)c4ccc([N+](=O)[O-])cc4)CC3)CC2)cc1 | -33.6% |
| Cc1cc(C)c2ccc(=S)[nH]c2n1 | 12% |
| CS(=O)(=O)N(CC(=O)NCCSCc1ccccc1)c1ccccc1 | 9.56% |
| COc1ccc(NC(=O)NC(c2ccccc2)c2ccccc2)c(OC)c1 | 11.3% |
| Cc1ccc(N2C(=O)c3sc4nnc(C)c(=O)n4c3C2=O)cc1 | 3.11% |
| CCC(=O)c1ccc(OCC(O)CN2CCN(C(c3ccccc3)c3ccccc3)CC2)cc1 (stereo not shown) | -51.4% |
| COc1ccc(CNC(=O)C(=O)NCC2OCCN2C(=O)c2ccc(OC)cc2)cc1 (stereo not shown) | 5.83% |
| Cc1cccc(C)c1Nc1nnc(SCC(=O)NCc2ccco2)s1 | 10.7% |
| O=C(CSc1nnnn1-c1ccccc1)Nc1ccc(Cl)cn1 | 7.19% |
| CC(C)n1nnnc1SCC(=O)NCc1cccs1 | 12.3% |
| O=C(/C(C=Nc1cccc(C(F)(F)F)c1)=C(/O)c1ccco1)C(F)(F)F | 16.2% |
| Cc1ccc(S(=O)(=O)N2CCN(C(=O)c3ccccc3)CC2)cc1 | -13.6% |
| Cc1cccc(NC(=O)C2CCCN2C(=O)OCC(C)C)c1 (stereo not shown) | 4.3% |
| COc1ccc(CC(=O)N2CCc3cc(OC)c(OC)cc3C2C)c(OC)c1 (stereo not shown) | 1.6% |

| SMILES | hERG current change (%, negative = inhibition) at 1uM |
| --- | --- |
| C=CCN(C(=O)Cn1nc(C)n2c(cc3cc(C)ccc32)c1=O)c1ccccc1 | -2.35% |
| CCN(C(=O)c1cc2c(C)nc3ccccc3c2o1)c1cc(Cl)ccc1OC | -0.548% |
| COC(=O)COc1nc(C)c2c(c1C#N)CC(C)(C)OC2 | 4.35% |
| CCO/C(C)=N/n1c2nc3ccccc3nc2c2c(=O)n(Cc3ccccc3Cl)c(C)nc21 | -0.93% |
| CCCNC(=O)C1CN(S(=O)(=O)c2ccc(C)cc2)c2ccccc2O1 (stereo not shown) | 2.33% |
| CC(C)c1ccc(S(=O)(=O)c2nnn3c2nc(NCC2CCCO2)c2ccccc23)cc1 (stereo not shown) | 2.42% |
| COc1ccc(NC(=S)N(CCCN2CCCC2)Cc2ccco2)cc1 | -3.12% |
| CCN1CCN(C(CNS(=O)(=O)c2ccc(Br)cc2)c2cccnc2)CC1 (stereo not shown) | -26.2% |
| O=[n+]1c2c(n([O-])c3cc(Br)ccc31)CCCC2 | 6.09% |
| CCOC(=O)C1(CCOc2ccccc2)CCN(Cc2ccccc2O)CC1 | -8.86% |
| COc1cccc(N2CCN(C(=S)Nc3ccc(F)cc3)CC2)c1 | 9.41% |
| S=C(Nc1ccccc1Cl)N(Cc1cccnc1)Cc1ccco1 | 4.18% |
| CCOC(=O)CSc1nnc(CNC(=O)c2cccc(C)c2)n1C | 10.7% |
| CC(C)Cn1c(SCC(=O)c2ccc(Cl)s2)nnc1-c1ccco1 | -9.8% |
| CNC(=S)N1N=C(c2ccc(C)cc2)CC1c1ccc(OC)cc1 (stereo not shown) | 8.97% |
| CCCCN(C(=O)c1ccc(Br)o1)C1CCS(=O)(=O)C1 (stereo not shown) | 2.4% |
| COc1cccc(NC(=O)NC(=O)c2c(C)cc(Cl)nc2Cl)c1 | 5.15% |
| CCN1CCCC1CNC(=O)c1cc(N)ccc1OC.O.O=C(O)C(=O)O (stereo not shown) | 15.5% |
| COc1ccccc1NCCC(=O)O | 15.7% |
| CCSc1nnc(SCC(=O)N2CCN(C(=O)c3ccco3)CC2)s1 | 5.62% |
| CC#CC[N+](C)(C)CC(=O)c1ccccc1.[Br-] | 13.5% |
| NC(=O)c1ccc(C(=O)N/N=C(/Cc2ccccc2)c2ccccc2)cc1 | 16.4% |
| c1cc(-c2noc(CCC3CCCC3)n2)ccn1 | 5.95% |

| SMILES | hERG current change (%, negative = inhibition) at 1uM |
| --- | --- |
| Cc1ncn2cc(-c3ccc(Cl)cc3Cl)[nH]c(=O)c12 | 12% |
| O=C(N/C(=C\c1cccc([N+](=O)[O-])c1)C(=O)N1CCCCC1)c1cccs1 | 4.76% |
| CC(=O)c1cccc(NC(=O)N2CCN(S(C)(=O)=O)CC2)c1 | 4.94% |
| O=C(OCC(=O)N1CCOCC1)c1c(Cl)ccc(Cl)c1Cl | 10.5% |
| COc1cccc(NC(=O)c2cc([N+](=O)[O-])ccc2N2CCN(C)CC2)c1 | -12.4% |
| Cc1ccccc1Nc1ncnc(N)n1 | -2.79% |
| Cc1cc(C)nc(NS(=O)(=O)c2ccc(-n3cccc3)cc2)n1 | 8.65% |
| CC(C)OP(=O)(OC(C)C)C(NC(=O)c1ccccc1Br)C(N)=O (stereo not shown) | 15.2% |
| Nc1c2c(nc3sc4c(c13)CCCC4)-c1ccccc1CC2 | 14.2% |
| Cc1cnc(NC(=O)c2ccncc2)s1 | 14.2% |
| Cc1ccc(C(C#N)c2ccc3c(C(F)(F)F)cc(C(F)(F)F)nc3n2)cc1 (stereo not shown) | 11.8% |
| CNC(=O)C1(C)C=CCN1C(=O)c1ccccc1 (stereo not shown) | 15.4% |
| CC(C)N1CCc2c(sc(NC(=O)c3ccc([N+](=O)[O-])o3)c2C(N)=O)C1.Cl | 11.5% |
| CCOC(=O)C1CCCN(C(=O)c2sc3nc4n(c(=O)c3c2C)CCC4)C1 (stereo not shown) | 3.76% |
| COc1ccccc1OC(C)C(=O)Nc1nc(-c2ccc(S(=O)(=O)N3CCOCC3)cc2)cs1 (stereo not shown) | 15.8% |
| COc1ccccc1C(=O)Nc1cccc(NC(C)=O)c1 | 0.451% |
| O=C(C1CC1)N(CCc1ccccc1)Cc1nc2ccccc2c(=O)[nH]1 | -10.8% |
| CCOc1ccccc1-n1nnnc1SCC(=O)OC | 15.2% |
| Cc1ccc2c(c1)C1CN(C)CCC1N2C(=O)Nc1cccc(Cl)c1 (stereo not shown) | -10.3% |
| Cl.OC1(c2ccccc2)CNCCc2ccccc21 (stereo not shown) | 12.5% |
| Cc1ccc(/C([O-])=C(/C(=S)NCc2ccco2)[n+]2ccccc2)cc1 | 9.21% |
| COC(=O)c1cc2c(C)nn(-c3ccccc3)c2s1 | 4.06% |
| NC(=O)C1CCN(C(=O)COc2ccc(S(=O)(=O)NCc3ccccc3)cc2Cl)CC1 | 4.5% |

| SMILES | hERG current change (%, negative = inhibition) at 1uM |
| --- | --- |
| Cn1c(N)c(C(=O)COC(=O)c2ccco2)c(=O)n(C)c1=O | 9.87% |
| Cc1cc2oc(C(=O)N3CCN(CCc4ccccn4)CC3)c(C)c2cc1C | -6.88% |
| C[C@@H](O)CC(=O)O | -4.49% |
| O=C(c1nc2ncccn2n1)N1CCN(c2ccc(F)cc2)CC1 | -10.1% |
| c1ccc2c(c1)nc(NC1CCCCC1)c1nncn12 | -1.51% |
| COc1ccc(-c2cc(C)no2)cc1S(=O)(=O)N1CC(=O)Nc2ccccc21 | 16.6% |
| COc1ccccc1OCCOc1ccc(C(=O)c2ccccc2)cc1 | 6.16% |
| COCCCn1c(SCC(=O)N2CCCCC2C)nnc1-c1ccco1 (stereo not shown) | 4.52% |
| O=C(CC(C(=O)O)c1ccccc1)Nc1ccccc1 (stereo not shown) | 13.7% |
| Cc1ccc(NC2(c3nnnn3-c3c(C)cccc3C)CCCCC2)cc1 | 10.1% |
| CC1(C)Oc2ccc3ccc(=O)oc3c2C(/C=N/O)C1=O (stereo not shown) | 17.3% |
| CCOc1ccccc1NC(=O)c1nc(-c2ccccc2)oc1C | 8.2% |
| O=c1c2ccccc2cnn1Cc1n[nH]c(=S)n1-c1ccc(Cl)cc1 | 3.76% |
| Nc1[nH]n(-c2ccccc2)c(=O)c1N=Nc1ccc2c(c1)OCO2 | 9.34% |
| COCCn1c(SCC(=O)Nc2cccc(F)c2)nc2c(c1=O)SCC2 | 9.53% |
| O=C1C2CC(O)CN2C(=O)N1c1ccccc1 (stereo not shown) | 8.62% |
| O=c1[nH]c(=O)n(Cc2ccccc2)c(O)c1/C=C1\C=Nc2ccccc21 | 9.58% |
| CCOC(=O)c1c(-c2cccc(C)c2)csc1NC(=O)c1c(-c2ccccc2)noc1C | 1.55% |
| NNC(=O)[C@H](Cc1ccccc1)NC(=O)NCCc1ccccc1 | 4.49% |
| Cc1cccc(C(=O)Oc2ccccc2/C=N/NC(=O)c2ccc(NC(=O)C(C)(C)C)cc2)c1 | 0.901% |
| COc1ccccc1C(C)NCC(=O)Nc1c(F)cccc1F (stereo not shown) | 10.4% |
| COCCn1nnnc1C(c1ccc2ncccc2c1)N1CCc2ccccc21 (stereo not shown) | 13.9% |
